The results in this text go back to PubChem BioAssay AID1745853 (National Center for Advancing Translational Sciences (NCATS), 2022).

The list shows a part of the results. The main result of the screen is listed elsewhere. These columns were measured beside it and carry no call.

Common to all, as to assay: Primary Screen for Target Class Profiling of Small Molecule Inhibitors of Methyltransferases
In assay [1] the target is Glycine N-methyltransferase (Homo sapiens) (UniProt Q14749). The settings on record: purified enzyme, MTase-Glo SAH luminescence; measured here: GNMT inhibition; at 40 µM; stronger effect = lower value. The essentials: (§1)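 Each enzyme was reacted with SAM and its substrate, with compounds tested once at 40 uM; SAH formed was read by MTase-Glo luminescence.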
The target in assay [2] is Guanidinoacetate N-methyltransferase (Homo sapiens) (UniProt Q14353). The settings on record: purified enzyme, MTase-Glo SAH luminescence; measured here: GAMT inhibition; at 40 µM; stronger effect = lower value. The essentials: as §1
The target of assay [3] is Histamine N-methyltransferase (Homo sapiens) (UniProt P50135). The settings on record: purified enzyme, MTase-Glo SAH luminescence; measured here: HNMT inhibition; at 40 µM; stronger effect = lower value. The essentials: as §1
The target of assay [4] is Nicotinamide N-methyltransferase (Homo sapiens) (UniProt P40261). The settings on record: purified enzyme, MTase-Glo SAH luminescence; measured here: NNMT inhibition; at 40 µM; stronger effect = lower value. The gist of the method: as §1
The target of assay [5] is Phenylethanolamine N-methyltransferase (Homo sapiens) (UniProt P11086). The settings on record: purified enzyme, MTase-Glo SAH luminescence; measured here: PNMT inhibition; at 40 µM; stronger effect = lower value. The gist of the method:
as §1
% is scaled to controls: 0 for no effect and ±100 for the full control effect.

Turning to `CN(C)c1ccc(CNC(=O)CCCn2ccc3cc(S(=O)(=O)N4CCCC4)ccc32)cc1`, the activity change, negative = inhibition in assay [1] was 11%; in assay [2] it was 2.28%; in assay [3] it was 7.43%; in assay [4], 11.6%; in assay [5], 6.19%.

Turning to `N#Cc1cccc(CN2CCCC(CNS(=O)(=O)Cc3ccccc3)C2)c1` (stereo not drawn), the activity change, negative = inhibition in assay [1] was -6.08%; in assay [2] it was -1.43%; in assay [3], -3.32%; in assay [4], -3.38%; in assay [5], -9.08%.

`COC(=O)c1ccc2c(=O)[nH]c3c(C(=O)NCCC(C)C)sc(=S)n3c2c1`: the activity change, negative = inhibition is -16.4% in assay [1]; 0% in assay [2]; 10.6% in assay [3]; -17.9% in assay [4]; -6.03% in assay [5].

On to `CC1CC(C)CN(C(=O)Cn2c(=O)oc3cc(S(=O)(=O)NC4CCCC4)ccc32)C1` (stereo not drawn), for which the activity change, negative = inhibition was -4.12% in assay [1]; 1.74% in assay [2]; -3.56% in assay [3]; 4.36% in assay [4]; -5.25% in assay [5].

For the compound `Cc1ccc(-c2ccc(N)nc2)c2cccnc12`, the activity change, negative = inhibition in assay [1] is -11.5%; in assay [2] it was -3.27%; in assay [3], -6.03%; in assay [4], -7.16%; in assay [5] it was -4.71%.

For the compound `COc1ccc(OC)c(S(=O)(=O)N2CCC3(CCC3OC)CC2)c1` (stereo not drawn), the activity change, negative = inhibition is 0.691% in assay [1]; 1.01% in assay [2]; 6.86% in assay [3]; -0.822% in assay [4]; 4.34% in assay [5].

Consider `Cc1ccc(CNC(=O)CCc2nc(C3CCCN3S(C)(=O)=O)no2)o1` (stereo not drawn), for which the activity change, negative = inhibition was -6.83% in assay [1]; -13.8% in assay [2]; -4.09% in assay [3]; -19.8% in assay [4]; -16.1% in assay [5].

As for `COc1ccc(/C=C/C(N)=O)cc1OC`, the activity change, negative = inhibition in assay [1] was 3.81%; in assay [2] it was 4.32%; in assay [3], 10.1%; in assay [4] it was -9.89%; in assay [5], 3.9%.

For the compound `Cn1c(=O)n(C)c2cc(CNCCNC(=O)c3nonc3N)ccc21`, the activity change, negative = inhibition in assay [1] is -7.61%; in assay [2], 0%; in assay [3] it was -1.41%; in assay [4] it was 1.91%; in assay [5], -2.55%.

For the compound `CN(CCc1cnn(C)c1)C(=O)c1coc(COc2cccc(C(F)(F)F)c2)n1`, the activity change, negative = inhibition is -4.3% in assay [1]; -6.09% in assay [2]; -1.97% in assay [3]; -11.9% in assay [4]; -8.68% in assay [5].

Regarding `COc1ccccc1C1CCN(Cc2cn(-c3ccccc3)nn2)CC1`, the activity change, negative = inhibition in assay [1] is -9.62%; in assay [2], -9.06%; in assay [3] it was -21.7%; in assay [4], -24.5%; in assay [5], -21.1%.

`Cc1[nH]c(/C=C2\C(=O)Nc3cc(-c4ccccc4)ccc32)c(C)c1CCC(=O)O`: the activity change, negative = inhibition was -9.58% in assay [1]; 10.1% in assay [2]; -7.58% in assay [3]; -10.6% in assay [4]; -7.31% in assay [5].

As to `COc1ccc(NC(=O)N2CCn3c(C)ccc3C2C(C)C)cc1OC` (stereo not drawn), the activity change, negative = inhibition in assay [1] is 10.2%; in assay [2], 0%; in assay [3], -1.74%; in assay [4], 1.53%; in assay [5], 4.14%.

For `CCC(C(=O)NCc1cccc(F)c1)n1ccc2cc(S(=O)(=O)N3CCCCC3)ccc21` (stereo not drawn), the activity change, negative = inhibition in assay [1] was 0.275%; in assay [2], 0%; in assay [3], -0.29%; in assay [4] it was -0.481%; in assay [5], 1.93%.

For the compound `CC(=O)Nc1c2n(c3ccccc13)CC(C)(C(=O)NC1CCCC1)N(Cc1ccc(C)cc1)C2=O` (stereo not drawn), the activity change, negative = inhibition was -4.5% in assay [1]; 0.135% in assay [2]; 6.87% in assay [3]; 2.15% in assay [4]; 4.76% in assay [5].

In the case of `CC(=O)c1c(C)nn(CCC(=O)N[C@@H]2CCOC[C@H]2OCCO)c1C`, the activity change, negative = inhibition in assay [1] was -0.58%; in assay [2], -0.491%; in assay [3], 1.04%; in assay [4], 1.3%; in assay [5], 4.46%.

As to `Nc1nonc1-c1nc2cnccc2n1C1CCCCC1`, the activity change, negative = inhibition was -13.2% in assay [2], -63.1% in assay [4] and -27% in assay [5].

On to `CN1C(=O)c2cc(C(=O)NCCc3c[nH]c4ccccc34)nn2CC1(C)C(=O)NC1CCCCC1` (stereo not drawn), for which the activity change, negative = inhibition is 1.69% in assay [1]; 4.8% in assay [2]; -2.79% in assay [3]; 3.06% in assay [4]; 0.609% in assay [5].

As for `COc1ccc(Br)cc1S(=O)(=O)NC(=O)/C=C/c1ccccc1Cc1ccc2ccccc2c1`, the activity change, negative = inhibition in assay [1] was -31.2%; in assay [2] it was -9.37%; in assay [3] it was -4.28%; in assay [4], -20.4%; in assay [5], -0.386%.

`COc1cccc(C(=O)NC2CCN(c3cc(-c4cccs4)[nH]n3)CC2)c1OC`: the activity change, negative = inhibition is -4.38% in assay [1]; -5.02% in assay [2]; -1.85% in assay [3]; -3.9% in assay [4]; -2.49% in assay [5].

Take `CC(=O)N[C@H]1[C@H](O[C@H]2CC[C@@]3(C)C(CC[C@]4(C)C3CC=C3[C@@H]5CC(C)(C)CC[C@]5(C(=O)OC5OCC(O)C(O)C5O)CC[C@]34C)C2(C)C)O[C@H](COC2OC(C)C(O)C(OC3OC(C)C(O)C(O)C3O)C2O)[C@@H](O)[C@@H]1O` (stereo partly drawn): the activity change, negative = inhibition in assay [1] came to 0%; in assay [2], 19.2%; in assay [3], 7.7%; in assay [4], 3.29%; in assay [5] it was 9.01%.

Regarding `Cn1ccnc1CN1CCN(CC2(O)CNCCOC2)CC1` (stereo not drawn), the activity change, negative = inhibition was 0.502% in assay [1]; 0.834% in assay [2]; 1.17% in assay [3]; 3.41% in assay [4]; -1.64% in assay [5].

Take `O=C(c1cc2cc(F)ccc2[nH]1)N1CCCC(CO)(Cc2cccc(Cl)c2)C1` (stereo not drawn): the activity change, negative = inhibition in assay [1] was -9.2%; in assay [2], -6.73%; in assay [3], -4.77%; in assay [4] it was -13.7%; in assay [5] it was -6.7%.

Take `COC[C@H]1CCCN1Cc1cn(-c2ccccc2C)nc1-c1ccc(OC)c(F)c1`: the activity change, negative = inhibition in assay [1] was 0.185%; in assay [2] it was 1.73%; in assay [3] it was -3.23%; in assay [4], -2.54%; in assay [5], 6.07%.

Turning to `CCCN1C(=O)c2c(C(=O)N3CCN(c4ccccc4)CC3)ncn2CC1(C)C(=O)NCc1ccc(OC)cc1` (stereo not drawn), the activity change, negative = inhibition in assay [1] was 3.91%; in assay [2], 0%; in assay [3], -0.267%; in assay [4], 5.52%; in assay [5], 2.75%.

Turning to `CN1CCN([C@H]2CCN(C(=O)CCCc3cn[nH]c3)C[C@H]2CCC(=O)O)CC1`, the activity change, negative = inhibition in assay [1] is -2.62%; in assay [2], -5.02%; in assay [3] it was 2.08%; in assay [4], -2%; in assay [5] it was -1.76%.

With `COc1ccc(OC)c(NC(=O)Cn2c(=O)oc3cc(S(=O)(=O)NCc4ccccc4)ccc32)c1`, the activity change, negative = inhibition in assay [1] amounted to 12.4%; in assay [2], 1.44%; in assay [3], 13.1%; in assay [4], 1.94%; in assay [5] it was 10.5%.

Turning to `CC(C)NC(=O)c1ccc2c(=O)n(Cc3ccccc3)c3nn(Cc4ccc(F)cc4)c(=O)n3c2c1`, the activity change, negative = inhibition in assay [1] came to 3.74%; in assay [2], 0.864%; in assay [3], 4.3%; in assay [4], 4.66%; in assay [5], 4%.

For `O=S(=O)(NCCn1c(-c2ccncc2)nc2ccccc21)c1ccccc1`, the activity change, negative = inhibition in assay [1] is -3%; in assay [2], 2.62%; in assay [3], 0.614%; in assay [4], -4.28%; in assay [5], 2.98%.

For `Cc1ccc(NC(=O)N2CCn3c(C)ccc3C2C(C)C)cc1C` (stereo not drawn), the activity change, negative = inhibition in assay [1] is 5.43%; in assay [2], 0%; in assay [3], 0.631%; in assay [4], -2.08%; in assay [5] it was 4.27%.
